Molecular target: T1, biotinylated truncated STAT6 (123-632)-avi (Homo sapiens, UniProt P42226)
T1 sequence (P42226 123-632 limits assumed): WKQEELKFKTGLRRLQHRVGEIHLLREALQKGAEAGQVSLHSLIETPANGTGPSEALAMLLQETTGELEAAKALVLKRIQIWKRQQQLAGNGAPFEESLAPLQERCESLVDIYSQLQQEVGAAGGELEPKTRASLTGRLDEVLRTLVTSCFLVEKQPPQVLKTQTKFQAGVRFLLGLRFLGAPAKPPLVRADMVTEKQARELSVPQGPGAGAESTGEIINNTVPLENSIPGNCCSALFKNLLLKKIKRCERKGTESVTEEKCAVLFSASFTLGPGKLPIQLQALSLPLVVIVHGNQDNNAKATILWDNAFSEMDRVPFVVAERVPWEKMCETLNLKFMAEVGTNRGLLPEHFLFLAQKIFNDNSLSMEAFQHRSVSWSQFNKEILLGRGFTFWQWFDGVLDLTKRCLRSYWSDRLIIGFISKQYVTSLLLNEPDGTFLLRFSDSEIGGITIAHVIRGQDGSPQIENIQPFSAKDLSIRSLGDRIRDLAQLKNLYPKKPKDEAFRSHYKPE
Assay: Homogenous Time-Resolved Fluorescence (HTRF) binding assay
Conditions: 0.15 nM biotinylated truncated STAT6 (123-632)-avi, 20 nM fluorescein-labeled probe

**Q.** Which IC50 (30 minutes room temperature) does the source give for COc1ccccc1-c1cc(C2=CCCN(c3ccccn3)C2)c(F)c2[nH]c(C(=O)N(C)C)cc12 [Example I-1557] here?
**A.** 1000 to 10000 nM

**Q.** Which IC50 (30 minutes at room temperature) does the source give for CNC(=O)c1cc2cc(C3=CCCN(C(=O)CCn4ccnn4)C3)ccc2o1 [Example I-236] here?
**A.** 1000 to 10000 nM

**Q.** How did the IC50 (30 minutes at room temperature) turn out when CCOc1ccccc1-c1cc(C2=CCCN(C(=O)CCn3ccnn3)C2)c(F)c2[nH]c(C(=O)N3CCN(c4ncccc4OC)CC3)cc12 [Example I-412] was run?
**A.** < 100 nM

**Q.** For CN(C)C(=O)c1cc2ccc(C3=CCCN(C(=O)CCc4nnc[nH]4)C3)cc2[nH]1 [Example I-21], which IC50 (30 minutes at room temperature) is on record?
**A.** 10000 to 100000 nM

**Q.** With COc1ccccc1-c1cc(C2=CCCN(C(=O)CCn3ccnn3)C2)c(F)c2[nH]c(C(=O)N3CCN(c4c(C)ccc5[nH]ncc45)CC3)cc12 [Example I-959] as the compound, how does the IC50 (30 minutes at room temperature) read?
**A.** < 100 nM

**Q.** How did the IC50 (30 minutes at room temperature) turn out when CN(C)C(=O)c1cc2ccc(C3=CCCN(C(=O)CN4C(=O)COc5ccccc54)C3)cc2[nH]1 [Example I-79] was run?
**A.** 10000 to 100000 nM

**Q.** COc1ccccc1-c1cc(C2=CCCN(C(=O)CCn3ccnn3)C2)c(F)c2[nH]c(C(=O)N(C)CCCNC(C)=O)cc12 [Example I-1351] was tested. Which IC50 (30 minutes room temperature) did it give?
**A.** < 100 nM

**Q.** How did the IC50 (30 minutes at room temperature) turn out when COc1cc(F)cnc1N1CCN(C(=O)c2cc3c(-c4ccc(C5(C#N)CC5)cc4)cc(C4=CCCN(C(=O)CCn5ccnn5)C4)c(F)c3[nH]2)CC1 [Example I-1140] was run?
**A.** < 100 nM

**Q.** COc1cc(F)cnc1N1CCN(C(=O)c2cc3c(-c4cc(C)nc(C)c4)cc(C4=CCCN(C(=O)CCn5ccnn5)C4)c(F)c3[nH]2)CC1 [Example I-632] was tested. Which IC50 (30 minutes at room temperature) did it give?
**A.** < 100 nM

**Q.** Which IC50 (30 minutes at room temperature) does the source give for CN(C)C(=O)c1cc2ccc(C3=CCCN(C(=O)C4(O)CCN(Cc5ccccc5)CC4)C3)cc2[nH]1 [Example I-98] here?
**A.** 10000 to 100000 nM

**Q.** How did the IC50 (30 minutes room temperature) turn out when COc1ccccc1-c1cc(C2=CCCN(C(=O)CCn3ccnn3)C2)c(F)c2[nH]c(C(=O)N3CCC(C4C(=O)Nc5ccccc54)CC3)cc12 (stereo not shown) [Example I-1347] was run?
**A.** 100 to 1000 nM

**Q.** COc1ccnc(N2CCN(C(=O)c3cc4c(-c5ccccc5OC)cc(C5=CCCN(C(=O)CCn6ccnn6)C5)c(F)c4[nH]3)CC2)c1 [Example I-900] was tested. Which IC50 (30 minutes at room temperature) did it give?
**A.** < 100 nM

**Q.** Which IC50 (30 minutes at room temperature) does the source give for CNc1ccc(-c2cc(C3=CCCN(C(=O)CCn4ccnn4)C3)cc3cc(C(=O)N(C)C)oc23)c(OC)c1 [Example I-1056] here?
**A.** < 100 nM

**Q.** With COc1ccccc1-c1cc(C2=CCCN(C(=O)CCn3ccnn3)C2)c(F)c2[nH]c(C(=O)N3CCN(c4cc(OC)c5c(c4)nnn5C)CC3)cc12 [Example I-962] as the compound, how does the IC50 (30 minutes at room temperature) read?
**A.** < 100 nM

**Q.** COc1ccccc1-c1cc(C2=CCCN(C(=O)CCn3ccnn3)C2)c(F)c2[nH]c(C(=O)N3CCN(c4nccc5[nH]ccc45)CC3)cc12 [Example I-966] was tested. Which IC50 (30 minutes at room temperature) did it give?
**A.** < 100 nM

**Q.** CN(C)C(=O)c1cc2ccc(C3=CCCN(C(=O)C4CCC(C(=O)N5CCC=C(c6ccc7cc(C(=O)N(C)C)[nH]c7c6)C5)C4)C3)cc2[nH]1 (stereo not shown) [Example I-1684] was tested. Which IC50 (30 minutes room temperature) did it give?
**A.** 1000 to 10000 nM

**Q.** With COc1ccc(N2CCN(C(=O)c3cc4c(-c5ccccc5OC)cc(C5=CCCN(C(=O)CCn6ccnn6)C5)c(F)c4[nH]3)CC2)nc1 [Example I-1430] as the compound, how does the IC50 (30 minutes room temperature) read?
**A.** < 100 nM

**Q.** How did the IC50 (30 minutes at room temperature) turn out when CN(C)C(=O)c1ccc2c(c1)cc(C1=CCCN(C(=O)CCn3ccnn3)C1)n2CC1CC1 [Example I-1096] was run?
**A.** < 100 nM

**Q.** Which IC50 (30 minutes at room temperature) does the source give for COc1ccccc1-c1cc(C2=CCCN(C(=O)CCn3ccnn3)C2)c(F)c2[nH]c(C(=O)N3CCN(c4c(C)ccn5nccc45)CC3)cc12 [Example I-1019] here?
**A.** < 100 nM

**Q.** For CCc1nc(C)ccc1-c1cc(C(=O)N2CCN(C3CC3)CC2)cc2c(F)c(C3=CCCN(C(=O)CCn4ccnn4)C3)n(CC3CC3)c12 [Example I-548], which IC50 (30 minutes at room temperature) is on record?
**A.** > 100000 nM

**Q.** Which IC50 (30 minutes at room temperature) does the source give for CN(C)C(=O)c1cc2ccc(C3=CCCN(C(=O)CCCn4ncc5nc(Cl)ccc54)C3)cc2[nH]1 [Example I-90] here?
**A.** 10000 to 100000 nM

**Q.** With COc1ccccc1-c1cc(C2=CCCN(C(=O)CCn3ccnn3)C2)c(F)c2[nH]c(C(=O)N3CCC(C)(C)C3)cc12 [Example I-1541] as the compound, how does the IC50 (30 minutes room temperature) read?
**A.** 1000 to 10000 nM

**Q.** How did the IC50 (30 minutes at room temperature) turn out when CN(C)C(=O)c1cc2ccc(C3=CCCN(C(=O)C4COCC(=O)N4Cc4ccccc4)C3)cc2[nH]1 (stereo not shown) [Example I-93] was run?
**A.** 10000 to 100000 nM

**Q.** How did the IC50 (30 minutes at room temperature) turn out when COc1ccccc1-c1cc(C2=CCCN(C(=O)CCn3ccnn3)C2)c(F)c2[nH]c(C(=O)N3CCN(c4cncn4C)CC3)cc12 [Example I-1026] was run?
**A.** < 100 nM

**Q.** Which IC50 (30 minutes at room temperature) does the source give for Cc1c[nH]c2ncc(-c3cc(C4=CCCN(C(=O)CCn5ccnn5)C4)c(F)c4cc(C(=O)N(C)C)oc34)cc12 [Example I-1100] here?
**A.** < 100 nM

**Q.** Which IC50 (30 minutes room temperature) does the source give for CNc1ccccc1-c1cc(C2=CCCN(C(C)=O)C2)c(F)c2[nH]c(C(=O)N(C)C)cc12 [Example I-1563] here?
**A.** < 100 nM

**Q.** COc1ccccc1-c1cc(C2=CCCN(C(=O)CCn3ccnn3)C2)c(F)c2[nH]c(C(=O)N3CCN(Cc4ccc(Br)cc4)CC3)cc12 [Example I-852] was tested. Which IC50 (30 minutes at room temperature) did it give?
**A.** 100 to 1000 nM

**Q.** For COc1ccccc1-c1cc(C2=CCCN(C(=O)CCn3ccnn3)C2)c(F)c2[nH]c(C(=O)N3CCC(Nc4ncccn4)CC3)cc12 [Example I-849], which IC50 (30 minutes at room temperature) is on record?
**A.** < 100 nM

**Q.** CC(=O)N1CCC=C(c2cc(-c3ccc4[nH]ccc4c3)c3cc(C(=O)N(C)C)[nH]c3c2F)C1 [Example I-1500] was tested. Which IC50 (30 minutes room temperature) did it give?
**A.** 100 to 1000 nM

**Q.** For CN(C)C(=O)c1cc2cc(C3=CCCN(C(=O)CCn4ccnn4)C3)cc(CN3CC(N)C3)c2o1 [Example I-1180], which IC50 (30 minutes at room temperature) is on record?
**A.** < 100 nM

**Q.** With CN(C)C(=O)c1cc2ccc(C3=CCCN(C(=O)CCn4cccn4)C3)c(F)c2[nH]1 [Example I-1467] as the compound, how does the IC50 (30 minutes room temperature) read?
**A.** < 100 nM

**Q.** How did the IC50 (30 minutes at room temperature) turn out when COc1ccccc1-c1cc(C2=CCCN(C(=O)CCn3ccnn3)C2)c(F)c2sc(C(=O)N3CCN(c4ncccc4OC)CC3)cc12 [Example I-346] was run?
**A.** < 100 nM

**Q.** For CC(=O)NC(Cn1ccnn1)C(=O)N1CCC=C(c2ccc3oc(C(=O)N(C)C)cc3c2)C1 (stereo not shown) [Example I-178], which IC50 (30 minutes at room temperature) is on record?
**A.** 10000 to 100000 nM

**Q.** With COc1ccccc1-c1cc(C2=CCCN(C(=O)CCn3ccnn3)C2)c(F)c2[nH]c(C(=O)N3CCN(Cc4cccc5c4OCO5)CC3)cc12 [Example I-1382] as the compound, how does the IC50 (30 minutes room temperature) read?
**A.** 100 to 1000 nM

**Q.** How did the IC50 (30 minutes at room temperature) turn out when COc1cc(F)cnc1N1CCN(C(=O)c2cc3c(C4CN(C)C4)cc(C4=CCCN(C(=O)CCn5ccnn5)C4)c(F)c3[nH]2)CC1 [Example I-785] was run?
**A.** < 100 nM

**Q.** How did the IC50 (30 minutes at room temperature) turn out when COc1cccnc1N1CCN(C(=O)c2cc3c(C4=CCN(C)CC4C)cc(C4=CCCN(C(=O)CCn5ccnn5)C4)c(F)c3[nH]2)CC1 (stereo not shown) [Example I-1150] was run?
**A.** < 100 nM

**Q.** Which IC50 (30 minutes room temperature) does the source give for COc1ccccc1-c1cc(C2=CCCN(C(=O)CCn3ccnn3)C2)c(F)c2[nH]c(C(=O)N[C@H](C)c3nc4ccccc4[nH]3)cc12 [Example I-1397] here?
**A.** < 100 nM

**Q.** CCc1cnccc1-c1cc(C2=CCCN(C(=O)CCn3cccn3)C2)c(F)c2[nH]c(C(=O)N3CCN(c4ncc(F)cc4OC)CC3)cc12 [Example I-688] was tested. Which IC50 (30 minutes at room temperature) did it give?
**A.** < 100 nM

**Q.** Which IC50 (30 minutes at room temperature) does the source give for COc1cccnc1N1CCN(C(=O)c2cc3c(-c4cccc(C)c4OC)cc(C4=CCCN(C(=O)CCn5ccnn5)C4)c(F)c3[nH]2)CC1 [Example I-560] here?
**A.** < 100 nM

**Q.** Which IC50 (30 minutes at room temperature) does the source give for CN(C)C(=O)c1cc2cc(C3=CCCN(C(=O)[C@H](N)Cn4ccnn4)C3)ccc2o1 (single isomer, unassigned) [Example I-174] here?
**A.** 10000 to 100000 nM

**Q.** “2-(3-(1-(cyclopropylmethyl)-7-(2-ethyl-6-methylpyridin-3-yl)-5-(4-(5-fluoro-3-methoxypyridin-2-yl)piperazine-1-carbonyl)-1H-indol-2-yl)-5,6-dihydropyridin-1(2H)-yl)-2-oxoacetic acid [Example I-1228]” was tested. Which IC50 (30 minutes at room temperature) did it give?
**A.** < 100 nM

**Q.** With CN(C)C(=O)c1cc2c(-c3ccc(N4CCNCC4)cc3)cc(C3CCCN(C(=O)CCn4ccnn4)C3)c(F)c2[nH]1 (stereo not shown) [Example I-1528] as the compound, how does the IC50 (30 minutes room temperature) read?
**A.** < 100 nM

**Q.** COc1ccccc1-c1cc(C2=CCCN(C(=O)CCn3ccnn3)C2)c(F)c2[nH]c(C(=O)N3CCN(c4ncc(F)c(F)c4OC)CC3)cc12 [Example I-510] was tested. Which IC50 (30 minutes at room temperature) did it give?
**A.** < 100 nM
